# The other results are listed elsewhere or left out.
# B1: Siglec-F (Mus musculus), Q920G3 (protein)
# chain: MRWAWLLPLLWAGCLATDGYSLSVTGSVTVQEGLCVFVACQVQYPNSKGPVFGYWFREGANIFSGSPVATNDPQRSVLKEAQGRFYLMGKENSHNCSLDIRDAQKIDTGTYFFRLDGSVKYSFQKSMLSVLVIALTEVPNIQVTSTLVSGNSTKLLCSVPWACEQGTPPIFSWMSSALTSLGHRTTLSSELNLTPRPQDNGTNLTCQVNLPGTGVTVERTQQLSVIYAPQKMTIRVSWGDDTGTKVLQSGASLQIQEGESLSLVCMADSNPPAVLSWERPTQKPFQLSTPAELQLPRAELEDQGKYICQAQNSQGAQTASVSLSIRSLLQLLGPSCSFEGQGLHCSCSSRAWPAPSLRWRLGEGVLEGNSSNGSFTVKSSSAGQWANSSLILSMEFSSNHRLSCEAWSDNRVQRATILLVSGPKVSQAGKSETSRGTVLGAIWGAGLMALLAVCLCLIFFTVKVLRKKSALKVAATKGNHLAKNPASTINSASITSSNIALGYPIQGHLNEPGSQTQKEQPPLATVPDTQKDEPELHYASLSFQGPMPPKPQNTEAMKSVYTEIKIHKC
# How the values were obtained:
# Experiment in all cases: glycan array binding signal (z-score within array); higher = stronger binding
# Settings in all cases: glycan notation: IUPAC condensed, linker removed
# [1] = biological target: Man(a1-3)[Man(a1-6)]Man(b1-4)GlcNAc(b1-4)[Fuc(a1-6)]GlcNAc
# How it was run: (§1)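 Columns mapping to the same glycan were averaged after glycan names were converted to IUPAC-condensed notation. The data come from 3228 arrays in the Consortium for Functional Glycomics database, limited to those with an available protein sequence. Binding is reported as a within-array Z-score averaged across arrays of one protein sequence and across linkers.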
# [2] = biological target: Man(a1-6)Man
# How it was run: as §1
# [3] = biological target: Man(b1-4)GlcNAc
# How it was run: as §1
# [4] = biological target: MurNAc(b1-4)GlcNAc
# How it was run: as §1
# [5] = biological target: Neu5Ac(a2-3)Gal
# How it was run: as §1
# [6] = biological target: Neu5Ac(a2-3)Gal(b1-3)GalNAc
# How it was run: as §1
# [7] = biological target: Neu5Ac(a2-3)Gal(b1-3)GalNAc(b1-3)Gal(a1-4)Gal(b1-4)Glc
# How it was run: as §1
# [8] = biological target: Neu5Ac(a2-3)Gal(b1-3)GalNAc(b1-4)Gal(b1-4)Glc
# How it was run: as §1
# [9] = biological target: Neu5Ac(a2-3)Gal(b1-3)GalNAc(b1-4)[Neu5Ac(a2-3)]Gal(b1-4)Glc
# How it was run: as §1
# [10] = biological target: Neu5Ac(a2-3)Gal(b1-3)GalNAc(b1-4)[Neu5Ac(a2-8)Neu5Ac(a2-3)]Gal(b1-4)Glc
# How it was run: as §1
# [11] = biological target: Neu5Ac(a2-3)Gal(b1-3)GalNAc6S
# How it was run: as §1
# [12] = biological target: Neu5Ac(a2-3)Gal(b1-3)GlcNAc
# How it was run: as §1
# [13] = biological target: Neu5Ac(a2-3)Gal(b1-3)GlcNAc(b1-2)Man
# How it was run: as §1
# [14] = biological target: Neu5Ac(a2-3)Gal(b1-3)GlcNAc(b1-2)Man(a1-3)[GlcNAc(b1-4)][Neu5Ac(a2-3)Gal(b1-3)GlcNAc(b1-2)Man(a1-6)]Man(b1-4)GlcNAc(b1-4)GlcNAc
# How it was run: as §1
# [15] = biological target: Neu5Ac(a2-3)Gal(b1-3)GlcNAc(b1-2)Man(a1-3)[Neu5Ac(a2-3)Gal(b1-3)GlcNAc(b1-2)Man(a1-6)]Man(b1-4)GlcNAc(b1-4)GlcNAc
# How it was run: as §1
# [16] = biological target: Neu5Ac(a2-3)Gal(b1-3)GlcNAc(b1-2)[Neu5Ac(a2-3)Gal(b1-3)GlcNAc(b1-4)]Man(a1-6)[Neu5Ac(a2-3)Gal(b1-3)GlcNAc(b1-2)Man(a1-3)]Man(b1-4)GlcNAc(b1-4)GlcNAc
# How it was run: as §1
# [17] = biological target: Neu5Ac(a2-3)Gal(b1-3)GlcNAc(b1-3)Gal(b1-3)GlcNAc
# How it was run: as §1
# [18] = biological target: Neu5Ac(a2-3)Gal(b1-3)GlcNAc(b1-3)Gal(b1-4)GlcNAc
# How it was run: as §1
# [19] = biological target: Neu5Ac(a2-3)Gal(b1-3)GlcNAc(b1-3)GalNAc
# How it was run: as §1
# [20] = biological target: Neu5Ac(a2-3)Gal(b1-3)GlcNAc(b1-4)Gal(b1-4)Glc
# How it was run: as §1
# [21] = biological target: Neu5Ac(a2-3)Gal(b1-3)GlcNAc(b1-6)GalNAc
# How it was run: as §1
# [22] = biological target: Neu5Ac(a2-3)Gal(b1-3)GlcNAc6S
# How it was run: as §1
# [23] = biological target: Neu5Ac(a2-3)Gal(b1-3)[Fuc(a1-4)]GlcNAc
# How it was run: as §1
# [24] = biological target: Neu5Ac(a2-3)Gal(b1-3)[Fuc(a1-4)]GlcNAc(b1-3)Gal(b1-3)[Fuc(a1-4)]GlcNAc
# How it was run: as §1
# [25] = biological target: Neu5Ac(a2-3)Gal(b1-3)[Fuc(a1-4)]GlcNAc(b1-3)Gal(b1-4)[Fuc(a1-3)]GlcNAc
# How it was run: as §1
# [26] = biological target: Neu5Ac(a2-3)Gal(b1-3)[GlcNAc(b1-6)]GalNAc
# How it was run: as §1
# [27] = biological target: Neu5Ac(a2-3)Gal(b1-3)[Neu5Ac(a2-3)Gal(b1-4)]GlcNAc
# How it was run: as §1
# [28] = biological target: Neu5Ac(a2-3)Gal(b1-3)[Neu5Ac(a2-6)]GalNAc
# How it was run: as §1
# [29] = biological target: Neu5Ac(a2-3)Gal(b1-3)[Neu5Ac(a2-6)]GlcNAc(b1-3)[Fuc(a1-3)[Gal(b1-4)]GlcNAc(b1-6)]Gal(b1-4)Glc
# How it was run: as §1
# [30] = biological target: Neu5Ac(a2-3)Gal(b1-3)]Neu5Ac(a2-3)Gal(b1-4)]GlcNAc
# How it was run: as §1
binder,measurement,setting,value
B1,glycan array binding signal (z-score),[1],-0.14
same,glycan array binding signal (z-score),[2],-0.121
same,glycan array binding signal (z-score),[3],-0.12
same,glycan array binding signal (z-score),[4],-0.15
same,glycan array binding signal (z-score),[5],-0.115
same,glycan array binding signal (z-score),[6],-0.08
same,glycan array binding signal (z-score),[7],-0.112
same,glycan array binding signal (z-score),[8],-0.093
same,glycan array binding signal (z-score),[9],3.76
same,glycan array binding signal (z-score),[10],-0.114
same,glycan array binding signal (z-score),[11],-0.094
same,glycan array binding signal (z-score),[12],-0.056
same,glycan array binding signal (z-score),[13],0.123
same,glycan array binding signal (z-score),[14],-0.144
same,glycan array binding signal (z-score),[15],-0.134
same,glycan array binding signal (z-score),[16],-0.025
same,glycan array binding signal (z-score),[17],-0.109
same,glycan array binding signal (z-score),[18],-0.104
same,glycan array binding signal (z-score),[19],-0.12
same,glycan array binding signal (z-score),[20],-0.179
same,glycan array binding signal (z-score),[21],0.823
same,glycan array binding signal (z-score),[22],-0.104
same,glycan array binding signal (z-score),[23],-0.117
same,glycan array binding signal (z-score),[24],-0.121
same,glycan array binding signal (z-score),[25],-0.066
same,glycan array binding signal (z-score),[26],-0.159
same,glycan array binding signal (z-score),[27],2.46
same,glycan array binding signal (z-score),[28],0.27
same,glycan array binding signal (z-score),[29],-0.102
same,glycan array binding signal (z-score),[30],3.65

# Source: the supplement of paper PMC8728848
